Data on 89 sequences can be found in the supplement of paper PMC11417369.

The list shows a part of the results.

The test system of the assay is PfHDP1 homeodomain (GST-tagged). Description: gcPBM binding intensity (ln(normalized median fluorescence intensity)); higher = stronger DNA binding. In short, it runs like this: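 GST-fused DNA-binding domains of P. falciparum, expressed in E. coli, were applied at about 25 μg on average for 1 h to an Agilent 4 × 180k array of primer-extended double-stranded 36-bp intergenic genomic probes and negative controls. Binding intensity is the highest Masliner-normalised natural-log median intensity across replicate spots of either probe orientation, measured with Alexa488 anti-GST antibody and a 488 nm scan.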
As to AATATTTCTCATTTTGTGCACTGAAAAATGTAATAT, the “gcPBM binding intensity (ln)” value is 9.66.
For “TCATATATCCTTATCACACATATAATAAATTCCCTT [CACACA_site4457]”, the “gcPBM binding intensity (ln)” value came to 6.59.
Then “TTCTTTGCTTTTCAAACACACAAAAGTTATTATAGT [CACACA_site6390]”, with 6.44; and “ATATGATTATTATTATATAAATTATAAAGTCTAATA [GTGCAC_negctrl_site586]”, with 6.08; and “GTTCTACAAGCCACTGCATGCTGATATAGAATAAAT [TGCATGCA_site138]”, with 6.47.
Under “AAAAAGGAAATTTACACACACATATAATATACATTA [CACACA_site3296]” stands 6.59; under “ATTTACCAGACCATATGTACATACATAAAACACACA [XGTACX_site3788]”, 7.07; under “GGAATTGAAAAATCAGCACACACACTAATACATACA [CACACA_site9059]”, 6.78.
Then “AATAATTGTTAAAGGTGTACAATACCTACATAAGAA [XGTACX_site4215]”, with 7.04; and “AAATGGCAATAATGGACACACAAATGTTGTTATATA [CACACA_site2819]”, with 6.33; and “GAATAATTAAAAGGTAGTACAAAGGTTATCAAAAGG [XGTACX_site8496]”, with 6.95.
Consider “GATATGATTATGTGATGGTGTTTTTGATAGATATTT [CACACA_negctrl_site1445]”, for which the “gcPBM binding intensity (ln)” value was 6.77.
Then “AGAAAACCGAAAGAGACACACAACATGTCGATTTAG [CACACA_site3764]”, with 6.17.
Then TTGTTCTTTTGAAAGGTGCAAAAGAAAAATAATTAA, with 9.53; and “CTTTTTTTTTTGGGGGTGCATGCAAGACATATATTT [GTGCAC_site9660]”, with 9.02; and “ACATAACTTATATATACACACAATACAAATATATAT [CACACA_site2774]”, with 7.05.
On to “ATAATTTCTATTTCACAAAAAAAAAAAAAAAAAAAA [CACACA_negctrl_site1012]”, for which the “gcPBM binding intensity (ln)” value was found to be 6.05.
Then “ACTAAAAGGCTTAAATGTACATATTATATATATATA [XGTACX_site5897]”, with 8.71.
Turning to “GTTTTTGAGTAGTACACACACAATAAGGATGGATTC [CACACA_site3192]”, the “gcPBM binding intensity (ln)” value stood at 6.69.
Under “ACATCTAGGCTTATTTTATGATACATGTGAATATAT [TGCATGCA_negctrl_site325]” stands 6.32; under “ATATATATATGTTAGGTGCATATATATTTTGTGGAT [GTGCAC_site9964]”, 9.74.
Take “AATAATATTAATAAAAGTACATGTGTAATATATATA [XGTACX_site5922]”: the “gcPBM binding intensity (ln)” value is 7.31.
For the sequence “ATAAAAACTACATTCACACAAAAAAAAATCTACAAA [CACACA_site6109]”, the “gcPBM binding intensity (ln)” value is 6.53.
Turning to “ATAAAGATAATATATGCACACATATAAATATATAAA [CACACA_site9153]”, the “gcPBM binding intensity (ln)” value was found to be 9.85.
Consider “ATATATATAATATATTGTACATATAATATATATATA [XGTACX_site4792]”, for which the “gcPBM binding intensity (ln)” value turned out to be 8.05.
Take “AATTTTCAATAGTATACACACAATTATATATATATA [CACACA_site1116]”: the “gcPBM binding intensity (ln)” value came to 8.78.
Consider “TCTTTTCTCGGAAGGGTGCAAGGAATTAATGAAATA [GTGCAC_site9706]”, for which the “gcPBM binding intensity (ln)” value is 7.37.
Then “TCAATAAATATACATACATGCATACATACATACATA [TGCATGCA_site197]”, with 6.53; and “GAACATTTATTGTGTGTGCACAATTCTTTTTTAACC [GTGCAC_site9697]”, with 10.2.
Turning to “TGTGTTAATATGAATTTAAACATAAATAAATAAATA [CACACA_negctrl_site1589]”, the “gcPBM binding intensity (ln)” value amounted to 6.24.
Under “ATGTTTAATTAAATATGTACTTATTATATTATATGT [XGTACX_site8137]” stands 6.3; under “TTTAATTTTTATATAACACACATATTGTAATTATGT [CACACA_site4566]”, 6.46; under “AGGAATCTACATATATGTACATATATTGATATATTT [XGTACX_site137]”, 6.45.
Turning to “TATATATGTAGACGTTGTACTTTTTTGTAAGTTTAA [XGTACX_site5638]”, the “gcPBM binding intensity (ln)” value amounted to 6.2.
Consider “AAAATAAAATCATAAAGTACAAAAAGAAAATAAAAA [XGTACX_site7376]”, for which the “gcPBM binding intensity (ln)” value is 6.98.
For the sequence “CATGACATATCCTGTAGTACAACGTATATATAAGAT [XGTACX_site2577]”, the “gcPBM binding intensity (ln)” value was determined as 6.59.
For the sequence “TTTAAATTTTTATATTGTACTTTATTTATTTATTTA [XGTACX_site869]”, the “gcPBM binding intensity (ln)” value amounted to 6.22.
Turning to “TGTGTCAAGTTTAATAAACGCATATAATATATATGA [CACACA_negctrl_site607]”, the “gcPBM binding intensity (ln)” value stood at 6.51.
“AATGTTTAATATAACGCATGCCTTAATATAGAATGC [TGCATGCA_site463]”: the “gcPBM binding intensity (ln)” value was 6.38.
Then “TTTTTTTGCGCGGGAAGAATAAAATTTATAGAATAT [TGCATGCA_negctrl_site306]”, with 6.7; and “CAGACATTAATAAGTAGTACACAATAATTGACTAGG [XGTACX_site854]”, with 6.44; and “AATTTACACGTACGTGTACACACAAAAATATGTTTT [CACACA_site8242]”, with 7.37.
In the case of “TATTTTTATAAAAACTGTACATAATAAATAAAAATA [XGTACX_site4743]”, the “gcPBM binding intensity (ln)” value stood at 6.8.
On to “AATCAAAGTAATTTAACACACAATTTTAATACTGTT [CACACA_site7169]”, for which the “gcPBM binding intensity (ln)” value came out at 6.23.
Take “TTATATGTTTCTTCACGTACGTATAAAAATGAACTT [XGTACX_site1764]”: the “gcPBM binding intensity (ln)” value came to 6.55.
In the case of “TATCATGTGCGTGCGTGTACTTAACACACATAATAT [XGTACX_site2404]”, the “gcPBM binding intensity (ln)” value was 7.59.
Then “TCATTTATTTTAAGGTGTACCGTTTAAAATCACAAA [XGTACX_site3243]”, with 6.16; and “ATATTGACAAATATTACACACATATATATATATATA [CACACA_site4079]”, with 9.39; and “TTGTTCATTATGCACAGTACATAAAAAGTAAAAAAA [XGTACX_site2403]”, with 10.2.
In the case of “GTTTAACTGTTTTATACACACAATGTAGACAATAAA [CACACA_site8967]”, the “gcPBM binding intensity (ln)” value is 6.97.
As for “TAAATACATTGACACACACACAAATATGTACATACA [CACACA_site7371]”, the “gcPBM binding intensity (ln)” value amounted to 6.93.
For the sequence “ACTTGATTACACAACCACAAGTAATTGAAATTATTT [XGTACX_negctrl_site297]”, the “gcPBM binding intensity (ln)” value is 6.92.
Then “GTACAAAAAAAGTGTACACAAAGTAAGACTTTAATT [CACACA_site5068]”, with 6.7.
For the sequence “CACTGTAAATAGAAAGTGCAAAAATTGTAAATAAAA [GTGCAC_site9980]”, the “gcPBM binding intensity (ln)” value came to 9.
Consider “TTTCTAAATAATATACACAAAAAAATAAAACACTAA [TGCATGCA_negctrl_site43]”, for which the “gcPBM binding intensity (ln)” value came to 7.18.
Take “TGAAAAGATAAAAAATGTACATATATATTATATATA [XGTACX_site5678]”: the “gcPBM binding intensity (ln)” value came to 6.71.
Then “ATACACAATTATTTTCCTATTATGCAAGCAAATTTA [CACACA_negctrl_site1176]”, with 6.74; and “TTTCTAATTTATATCACACACATATATAAATAGTAA [CACACA_site6156]”, with 6.54; and “ATATATATAATTTAAAGTACATATTTAAGAATGAAA [XGTACX_site2238]”, with 6.45.
On to “AGTAATAATATAATTTGTACATATATATATTATAAA [XGTACX_site7138]”, for which the “gcPBM binding intensity (ln)” value stood at 6.48.
Under “TACAAAAATGTAGTCACACATATGTATACTTTTATG [CACACA_site5607]” stands 6.27.
Consider “AGTTTTATGTAGTGTTGTACTTTATACAAATATATA [XGTACX_site990]”, for which the “gcPBM binding intensity (ln)” value was determined as 6.51.
Regarding “GTATATAATTTATATTGTACGCATATTATTATCATT [XGTACX_site7277]”, the “gcPBM binding intensity (ln)” value was found to be 6.44.
“TCATTTTACAGATGTGCATGTGAATCAATCTATTTA [TGCATGCA_site787]”: the “gcPBM binding intensity (ln)” value is 7.27.
Under “AAAAAAAAAAAAAAAACACACAAACAAATGAATAAA [CACACA_site5769]” stands 6.46.
As to “AATATACAAATTACAAGTACAAATCAATATTATATG [XGTACX_site7521]”, the “gcPBM binding intensity (ln)” value was 6.37.
Consider “TGTAGTTTTTATTTATGTACGCATAACATAATTTAA [XGTACX_site104]”, for which the “gcPBM binding intensity (ln)” value came out at 6.5.
Under “TATATATATAAATACACACACACATATATATATATA [CACACA_site4585]” stands 9.16.
Then “ATTTCTATATATTGTGCATGCCATTACACCAAATAT [TGCATGCA_site813]”, with 7.84.
Then “AGAATTTAGAAACAATGTTGTATATGTAATACCTTT [XGTACX_negctrl_site149]”, with 6.23; and “GATATTATGTGTTTGGTATTTCGATCTTGTCAGGAC [CACACA_negctrl_site426]”, with 6.59; and “TATATATATAAAAAAAGTACGTATTTAATAAAAATA [XGTACX_site4992]”, with 6.69.
Take “TTTTTAATTCAAAAAACTGTATGTTATATGTCAAAT [CACACA_negctrl_site72]”: the “gcPBM binding intensity (ln)” value stood at 6.31.
In the case of TTCATTTTATTTTAAGTGCATATTTTTATTTTTTTG, the “gcPBM binding intensity (ln)” value is 8.02.
Then “TAGTATGATAACTTGGGTACATAAATATGGAGTATC [XGTACX_site1296]”, with 6.81.
Under “AGAAAGGATATTATATGTACATATCTTTGTATTTTT [XGTACX_site5040]” stands 6.52; under “CATACCCATAAACACACACACATATATACCTATATA [CACACA_site4745]”, 6.87; under “ATCATACCTTTTAATGTACACACATTTCTTTTTTGT [CACACA_site8198]”, 7.12.
On to “TATATAAATAAAAAAAGTACATTACTTTTTAATTTA [XGTACX_site285]”, for which the “gcPBM binding intensity (ln)” value was 5.88.
In the case of “TTTTATTTGACAAGCACACACTTAAATATATATATA [CACACA_site5792]”, the “gcPBM binding intensity (ln)” value worked out at 8.09.
Under “AAACAAAAAATAAAATGTACATTTATTACGATAAGT [XGTACX_site2392]” stands 7.12; under “ATGGAATAATCACGTACACACAAGAAAAAAAAAAAT [CACACA_site527]”, 6.62.
Then “GGATAATATATTAGAACACACATATATATGTAAAAA [CACACA_site185]”, with 6.91; and “ATTACAAATACAAACACACAAATGTTTTTCATTCAA [CACACA_site7639]”, with 6.49; and “TTTACATATTTATATACACACTTTTGCGTGCGTGGT [CACACA_site6647]”, with 7.06.
Under “AATAAAATATATTCCTGTACATATGATTCTTTTTTT [XGTACX_site7980]” stands 6.53; under “ATACATATATATATATGTACATATGTATTTTTTATT [XGTACX_site105]”, 6.72.
As to “ACTATACAGTTATACACACACATATATCTATAATAT [CACACA_site6283]”, the “gcPBM binding intensity (ln)” value amounted to 7.32.
In the case of “TAGTATAATATGAACACACACACACCGACAAAAAAA [CACACA_site5151]”, the “gcPBM binding intensity (ln)” value stood at 7.19.
